Measurements published in PubChem BioAssay AID1030 (National Center for Advancing Translational Sciences (NCATS), 2008).
Among all 220,000 compounds or so, about 16,000 (7.3%) were called active. Inconclusive results, whose numbers are uncertain, are shown with a selection of clear calls. Calls come from the whole dose curve; as a rule, active = well fitted inhibition curve with a large enough effect (not every such curve was filed as active); inconclusive = small, poorly fitted or top-dose-only effect, or another doubt; inactive = no such curve, though single readings can be large or run the other way. Potencies of inconclusive entries are left out as doubtful fits.
Potency is the fitted concentration of half-maximal effect; tags give direction and shape of the fitted curve.
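Throughout, for activity, negative = inhibition: plate controls were no enzyme wells and a reference inhibitor.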

The molecules below were run against Aldehyde dehydrogenase 1A1 (Homo sapiens) (UniProt P00352) (assay: qHTS Assay for Inhibitors of Aldehyde Dehydrogenase 1 (ALDH1A1)). Settings: Purified ALDH1A1, NADH fluorescence, propionaldehyde substrate; series mostly up to 75.3 µM; activity, negative = inhibition: at the top concentration.
Sequence of UniProt P00352 (P00352 whole entry, looked up): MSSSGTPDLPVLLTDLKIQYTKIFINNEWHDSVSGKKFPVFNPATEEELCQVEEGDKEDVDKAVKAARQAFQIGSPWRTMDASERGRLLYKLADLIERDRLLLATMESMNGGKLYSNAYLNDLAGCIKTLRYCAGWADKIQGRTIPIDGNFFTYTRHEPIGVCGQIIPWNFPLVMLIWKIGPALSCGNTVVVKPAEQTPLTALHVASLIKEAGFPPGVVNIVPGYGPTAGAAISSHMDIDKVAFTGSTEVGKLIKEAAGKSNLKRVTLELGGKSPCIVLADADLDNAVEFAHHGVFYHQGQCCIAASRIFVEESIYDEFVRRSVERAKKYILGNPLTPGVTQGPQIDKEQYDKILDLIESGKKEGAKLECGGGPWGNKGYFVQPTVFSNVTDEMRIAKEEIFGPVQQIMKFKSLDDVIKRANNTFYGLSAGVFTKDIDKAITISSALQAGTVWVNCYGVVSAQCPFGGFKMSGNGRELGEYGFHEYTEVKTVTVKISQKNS
For `COc1ccc(NC(=O)CNc2cc(S(=O)(=O)N3CCOCC3)ccc2NCC2CCCO2)cc1` (stereo not given), the Potency was active: 7.08 µM.
For `O=C(COc1ccc(F)cc1)Nc1nnc(-c2ccncc2)s1`, the Potency was inconclusive [inhibitor, single point].
With `O=C(NNc1c(Cl)cncc1Cl)c1sccc1Cl` the “activity, negative = inhibition” value was inactive: 5.75%.
With `CCn1c(CCn2ccnc2C)n[nH]c1=S` the “activity, negative = inhibition” value was inactive: 14.5%.
In the case of `O=C(NC(=S)NC1CCCC1)c1ccccc1Br`, the Potency is reported as inconclusive [inhibitor, single point].
For `CCOC(=O)C1(Cc2ccccc2C(F)(F)F)CCN(Cc2ccc(COC)o2)CC1`, the “activity, negative = inhibition” value was inactive: 9.74%.
In the case of `NC(=O)C1CCN(C(=O)c2ccc3c(=O)n(Cc4ccco4)c(SCC(=O)c4ccc(F)cc4)nc3c2)CC1`, the Potency is reported as inconclusive [inhibitor, single point].
In the case of `COc1ccc2c(=O)c3c(=O)n(Cc4ccco4)c(C(C)C)nc3oc2c1`, the Potency is reported as active: 9.46 µM.
`COc1ccc(C2C(C(=O)N3CCCCC3)CC(=O)N2c2ccc(OC)cc2)cc1` (stereo not given) was tested, and the Potency was active: 14.1 µM.
`O=C(Nc1ccccc1N1CCOCC1)c1csc2c1CCCC2` was tested, and the “activity, negative = inhibition” value was inactive: -11.9%.
With `COc1ccc(-c2cc(C(=O)N3CCN(c4ccccc4)CC3)c3ccccc3n2)cc1` the Potency was inconclusive [inhibitor, single point].
In the case of `CCOC(=O)c1sc2ncn(/N=C/c3ccc(O)c(OC)c3)c(=O)c2c1C`, the Potency is reported as inconclusive [inhibitor, partial curve].
In the case of `CN1CC(=O)N(CC(=O)Nc2ccc(N(C)C)cc2)c2ccccc2C1=O`, the Potency is reported as inconclusive [inhibitor, single point].
With `CC1SC(c2ccccc2)N(CC(O)c2ccc([N+](=O)[O-])cc2)C1=O` (stereo not given) the “activity, negative = inhibition” value was inactive: 3.74%.
`Cc1ccc(C(=O)COC(=O)c2c(C)cc(=O)oc2C)cc1[N+](=O)[O-]` was tested, and the Potency was inconclusive [inhibitor, partial curve].
With `O=C1CCC(CCC(=O)N2CCCC(C(=O)c3cccc(C(F)(F)F)c3)C2)=NN1` (stereo not given) the “activity, negative = inhibition” value was inactive: -11.9%.
With `Nc1nc(-c2cccnc2)cc(-c2cc(-c3cccnc3)nc(N)n2)n1` the activity, negative = inhibition was inactive: 5.61% [at 13.5 µM].
With `O=S(=O)(c1cc(Cl)ccc1Cl)N1CCCC1` the Potency was active: 0.0891 µM.
With `CS(=O)(=O)c1ccc2nc(NC(=O)c3ccco3)sc2c1` the “activity, negative = inhibition” value was inactive: 6.95%.
In the case of `O=C(Nc1ccc(-c2nc3ccccc3s2)cc1)C1=COCCO1`, the Potency is reported as inconclusive [inhibitor, partial curve].
With `O=C(Nc1ncn[nH]1)c1ccc(S(=O)(=O)N2CCOCC2)cc1` the “activity, negative = inhibition” value was inactive: -13.8%.
In the case of `O=C(NC1CCCc2ccccc21)C1CCC(CNc2c(N3CCOCC3)c(=O)c2=O)CC1` (stereo not given), the “activity, negative = inhibition” value is reported as inactive: 2.64%.
`C/C(CC(C)(C)c1ccccc1)=N\NS(=O)(=O)c1ccccc1` was tested, and the Potency was active: 12.6 µM.
With `CCOc1cc2c(C#N)c(N3CCOCC3)nc(N)c2c(N)n1` the Potency was inconclusive [inhibitor, partial curve].
For `COC(=O)CCN(c1ccccc1)S(=O)(=O)c1ccc(OC)cc1`, the Potency was inconclusive [inhibitor, single point].
`CCCn1c(SCc2cc(=O)oc3ccc4ccccc4c23)n[nH]c1=O` was tested, and the Potency was inconclusive [inhibitor, single point].
In the case of `Cc1cc(O)c(C(C)(C)C)cc1Sc1cc(C(C)(C)C)c(O)cc1C`, the Potency is reported as inconclusive [inhibitor, single point].
`c1cncc(-c2cncnc2-n2ccnc2)c1` was tested, and the “activity, negative = inhibition” value was inactive: 4.79%.
In the case of `COc1ccc(OCC(O)CN2C(=O)c3ccccc3S2(=O)=O)cc1` (stereo not given), the Potency is reported as inconclusive [inhibitor, partial curve].
In the case of `COC(=O)c1ccccc1NC(=O)CSc1nnc(CNS(=O)(=O)c2ccc(C)cc2)n1C`, the “activity, negative = inhibition” value is reported as inactive: 4.7%.
`CCC(C)(C)C(=O)Nc1ccc(OC)cc1[N+](=O)[O-]` was tested, and the “activity, negative = inhibition” value was inactive: 11.3%.
With `O=C(O)c1cnc(-c2ccccc2)nc1-c1ccccc1` the “activity, negative = inhibition” value was inactive: 5.75%.
For `Cc1ccc(S(=O)(=O)NCC(C)NS(C)(=O)=O)cc1` (stereo not given), the Potency was active: 14.1 µM.
With `N=c1sccn1CC(=O)Nc1ccccc1Cc1ccccc1` the Potency was inconclusive [inhibitor, single point].
With `Cc1ccc(S(=O)(=O)N2C=CC(C(F)(F)F)=NCC2)cc1` the Potency was inconclusive [inhibitor, single point].
`COc1cccc(-c2cc(C(F)(F)F)c(C#N)c(=O)[nH]2)c1` was tested, and the Potency was inconclusive [inhibitor, partial curve].
With `CC1Cc2ccccc2N1CC(=O)NCc1ccccc1Cl` (stereo not given) the Potency was inconclusive [inhibitor, single point].
With `Cc1cc(OCC(=O)Nc2ccncc2)cc(C)c1Br` the “activity, negative = inhibition” value was inactive: -7.12%.
In the case of `O=C(COc1cccc2c1CCN(Cc1ccc(Cl)cc1)C2=O)N1CCOCC1`, the “activity, negative = inhibition” value is reported as inactive: 6.73%.
For `CCCNC(=O)c1c(N)n(-c2cccc(OC)c2)c2nc3ccccc3nc12`, the Potency was inconclusive [inhibitor, partial curve].
For `O=C1c2ccccc2C(=O)c2c1ccc1c(=O)n(-c3ccccc3)[nH]c21`, the “activity, negative = inhibition” value was inactive: 1.51%.
For `Cc1cc(C(=O)CSc2ncccn2)c(C)n1-c1cccc(F)c1`, the Potency was inconclusive [inhibitor, partial curve].
In the case of `COc1ccc(CN/C=C2\CCCCC2=O)cc1`, the Potency is reported as inconclusive [inhibitor, single point].
For `Cc1ccc(NC(=O)CN(C)CC(=O)Nc2cccc(F)c2)cc1S(=O)(=O)N1CCCCCC1`, the Potency was inconclusive [inhibitor, single point].
With `Clc1ccc(C2=C3CCCCn4c(-c5ccccc5)c[n+](c43)C2)cc1` the Potency was inconclusive [inhibitor, partial curve].
`O=C(CNS(=O)(=O)c1ccccc1)NCC(=O)OCc1ccc(C(=O)c2ccccc2)cc1` was tested, and the “activity, negative = inhibition” value was inactive: -21.6%.
With `COc1ccc(OCCSc2ncn[nH]2)cc1` the “activity, negative = inhibition” value was inactive: 9.13%.
For `CCC(=O)Nc1cccc(-n2nnnc2SCC(=O)c2ccc(C)c(C)c2)c1`, the Potency was inconclusive [inhibitor, single point].
In the case of `CC(=O)Nc1nonc1-c1nc2ccccc2n1Cc1ccccc1`, the Potency is reported as inconclusive [inhibitor, partial curve].
In the case of `O=C(Nn1c(C2CCC2)nc2ccccc2c1=O)C1CCC1`, the Potency is reported as inconclusive [inhibitor, single point].
For `Cn1ccnc1Sc1nc2ccccc2nc1NS(=O)(=O)c1ccccc1`, the “activity, negative = inhibition” value was inactive: -3.12%.
`CCOC(=O)c1ccc(Nc2nc(C(=O)OCC)nc3ccccc23)cc1` was tested, and the Potency was inconclusive [inhibitor, partial curve].
With `CN(C)c1ccc(CNc2nc(-c3ccccc3)nn2S(C)(=O)=O)cc1` the Potency was inconclusive [inhibitor, single point].
`COc1cccc(OC)c1C(=O)Nc1nc2ccc([N+](=O)[O-])cc2s1` was tested, and the Potency was inconclusive [inhibitor, full curve].
For `CCCOc1ccccc1C1CC(=O)Nc2cc3c(cc21)OCCO3` (stereo not given), the “activity, negative = inhibition” value was inactive: -10.5%.
`COc1cccc(Cn2c(=O)c(-c3ccccc3)nc3cnc(N4CCNCC4)nc32)c1` was tested, and the Potency was inconclusive [inhibitor, partial curve].
With `COc1ccc(NCc2nnc(SCC(=O)NCc3ccccc3)n2-c2ccccc2OC)cc1` the Potency was inconclusive [inhibitor, single point].
With `Cc1cc(N)c2cc(OCCOc3ccc4nc(C)cc(N)c4c3)ccc2n1` the Potency was inconclusive [inhibitor, single point].
For `CCC(NC(=O)c1ccccc1NC(=O)c1ccccc1)C(=O)NNC(=O)c1cccnc1` (stereo not given), the Potency was inconclusive [inhibitor, partial curve].
With `CC[C@H](NC(C)C)[C@H](O)c1ccc(O)c(O)c1` the “activity, negative = inhibition” value was inactive: 7.58% [at 20.9 µM].
In the case of `Cc1ccc2occ(C3N[C@H](C(=O)O)CS3)c(=O)c2c1` (stereo not given in full), the Potency is reported as active: 1.41 µM.
With `Cc1ccc(C(=O)Nc2ccc3c(c2)OCO3)cc1S(=O)(=O)N1CCCCC1` the Potency was inconclusive [inhibitor, single point].
`Cc1cc(N(C)C)ccc1N=Nc1ccc2ncccc2c1` was tested, and the “activity, negative = inhibition” value was inactive: -11.1%.
With `CC1(C)CC(=O)C(C=NCC2CCN(C(=O)Nc3ccccc3)CC2)=C(O)C1` the Potency was inconclusive [inhibitor, single point].
For `C=CCOc1c(Br)cc(CNc2ccc(NC(=O)C(C)C)cc2)cc1OCC`, the Potency was inconclusive [inhibitor, single point].
For `CCOC(=O)C1=C(N)N2C(=O)C(C)SC2=C(C(=O)OC)C1c1ccccc1OC` (stereo not given), the Potency was inconclusive [inhibitor, single point].
`Cc1cc(C(C)(C)C)oc1C(=O)N(CC(=O)NC1CCCC1)Cc1ccccc1` was tested, and the Potency was inconclusive [inhibitor, partial curve].
`O=C(Cn1cnc2c(cnn2-c2ccc(F)cc2)c1=O)NCc1ccco1` was tested, and the “activity, negative = inhibition” value was inactive: -5.33%.
`COC/C=C/C1=CC2=CC(=O)C(C)(OC(=O)c3cnc4ccccc4n3)C(=O)C2=CN1CCc1c[nH]c2ccccc12` (stereo not given) was tested, and the activity, negative = inhibition was inactive: -3.02% [at 13.5 µM].
`Cc1cc(C(=O)N2CCCC(CNS(=O)(=O)c3cccs3)C2)nn1C` (stereo not given) was tested, and the Potency was active: 17.8 µM.
`N#Cc1c(-c2ccccc2)nc(SCC(=O)N(c2ccccc2)c2ccccc2)[nH]c1=O` was tested, and the Potency was active: 12.6 µM.
`COC(=O)[C@@]1(Cc2ccccc2)[C@H]2c3cc(C(=O)N4CCCC4)n(CCN4CNCC4=O)c3C[C@H]2CN1C(=O)c1ccccc1` was tested, and the “activity, negative = inhibition” value was inactive: -4.38%.
In the case of `COc1ccc2cc(CN(C(=O)Nc3ccccc3)C3CCCC3)c(=O)[nH]c2c1`, the Potency is reported as inconclusive [inhibitor, single point].
With `CCOCC(=O)Nc1cc(C)on1` the “activity, negative = inhibition” value was inactive: -7.11%.
With `O=C(COc1ccc(F)cc1)Nc1nccs1` the “activity, negative = inhibition” value was inactive: 5.6%.
